{"source": "PubChem BioAssay AID1259400", "about": "(National Center for Advancing Translational Sciences (NCATS), 2018)", "note": "In all, about 350,000 compounds went through this assay and about 2,100 (0.6%) were called active. Inconclusive means that the source gave no clear call. Such entries were picked first, then a sample of the others.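 Rule for the calls: active = activity change of -60% or lower, but not beyond a set lower limit; inconclusive = change between -60% and -40%, or beyond the set limit; inactive = change above -40%.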 More than one record can exist for a structure, and the calls need not agree. % is set by controls: 0 for no effect and ±100 for the full control effect.", "data": [{"target": "Relaxin receptor 1 (Homo sapiens) (UniProt Q9HBX9)", "sequence (Q9HBX9 whole entry, looked up)": "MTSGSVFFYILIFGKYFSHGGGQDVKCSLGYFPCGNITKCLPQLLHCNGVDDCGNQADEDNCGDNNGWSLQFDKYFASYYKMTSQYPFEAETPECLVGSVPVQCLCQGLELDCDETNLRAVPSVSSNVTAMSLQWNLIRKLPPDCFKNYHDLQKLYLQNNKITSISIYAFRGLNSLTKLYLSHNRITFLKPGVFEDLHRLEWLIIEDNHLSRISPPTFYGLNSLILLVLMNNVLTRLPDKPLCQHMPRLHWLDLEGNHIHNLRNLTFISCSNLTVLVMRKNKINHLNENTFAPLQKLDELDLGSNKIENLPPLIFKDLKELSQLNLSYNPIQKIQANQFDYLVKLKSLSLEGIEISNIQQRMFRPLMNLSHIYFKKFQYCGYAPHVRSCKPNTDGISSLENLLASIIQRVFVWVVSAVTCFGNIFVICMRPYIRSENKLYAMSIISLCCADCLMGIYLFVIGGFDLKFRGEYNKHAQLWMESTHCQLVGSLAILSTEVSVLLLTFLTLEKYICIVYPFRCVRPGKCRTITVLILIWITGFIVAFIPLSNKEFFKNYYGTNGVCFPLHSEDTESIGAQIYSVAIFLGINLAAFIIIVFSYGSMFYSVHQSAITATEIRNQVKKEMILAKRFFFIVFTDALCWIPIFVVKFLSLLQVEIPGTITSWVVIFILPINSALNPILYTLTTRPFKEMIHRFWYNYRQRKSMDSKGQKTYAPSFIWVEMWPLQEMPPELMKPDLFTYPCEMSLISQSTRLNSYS", "test": "qHTS Assay for Antagonists of the Relaxin Receptor RXFP1", "settings": "HEK293-RXFP1, relaxin-stimulated cAMP HTRF, 30 min; at 57.5 µM; active compounds read low", "values": [{"smiles": "O=C(CN(c1ccccc1Cl)S(=O)(=O)c1ccccc1)N/N=C/c1ccccc1C(=O)O", "activity change, negative = inhibition": "inconclusive: -42.7%"}, {"smiles": "COc1ccc(OCC(=O)NNC(=O)C2CCN(c3ncnc4sc(C)c(C)c34)CC2)cc1", "activity change, negative = inhibition": "inactive: -10.8%"}, {"smiles": "Cn1c(=O)c([N+](=O)[O-])c(Cl)c2ccccc21", "activity change, negative = inhibition": "active: -79.7%"}, {"smiles": "O=C(CSc1nnc(CNC(=O)c2ccco2)o1)Nc1ccc(F)cc1", "activity change, negative = inhibition": "inactive: -3.98%"}, {"smiles": "O=C(COC(=O)/C=C/c1ccc(OC(F)F)cc1)NC(=O)NC1CCCCC1", "activity change, negative = inhibition": "inactive: -10%"}, {"smiles": "CCCCn1nnc(NC(=O)Cc2ccc(Cl)cc2)n1", "activity change, negative = inhibition": "inconclusive: -53%"}, {"smiles": "O=[N+]([O-])c1cc(Br)c(O)c(C=Nc2ccc(N3CCOCC3)cc2)c1", "activity change, negative = inhibition": "inconclusive: -45.2%"}, {"smiles": "COc1ccccc1Nc1nnc(SCC(=O)NC(=O)Nc2ccc3c(c2)OCCO3)s1", "activity change, negative = inhibition": "inactive: -5.12%"}, {"smiles": "COc1ccc(C2=NN3C(C2)c2ccccc2OC32C(=O)N(C)c3ccccc32)cc1", "note": "(stereo unspecified)", "activity change, negative = inhibition": "inconclusive: -43.2%"}, {"smiles": "Cn1c(-c2ccc(Cl)nc2)nc2ccccc21", "activity change, negative = inhibition": "inactive: 0.174%"}, {"smiles": "CC(C)CCNC(=O)CSCc1cnn(-c2ccccc2)c1-n1cccc1", "activity change, negative = inhibition": "inconclusive: -45.3%"}, {"smiles": "Cc1ccc(NS(=O)(=O)c2cccc(C(=O)NCC3CCCO3)c2)cc1", "note": "(stereo unspecified)", "activity change, negative = inhibition": "inconclusive: -41.3%"}, {"smiles": "C/C(=N\\NC(=O)c1ccc(-n2cnnn2)cc1)c1ccc(Cl)cc1", "activity change, negative = inhibition": "inactive: 11.4%"}, {"smiles": "O=C(CSCc1c[nH]c(=O)[nH]c1=O)OCC(=O)c1ccc(Br)cc1", "activity change, negative = inhibition": "inconclusive: -45.2%"}, {"smiles": "CCOC(=O)N1CCN(C(=O)c2ccc(Cn3c(=S)[nH]c4cc5c(cc4c3=O)OCO5)cc2)CC1", "activity change, negative = inhibition": "active: -92.4%"}, {"smiles": "CCOc1ccc(NC(=O)CSC2=Nc3ccccc3C3=NC(CC(=O)NCc4ccc5c(c4)OCO5)C(=O)N23)cc1", "note": "(stereo unspecified)", "activity change, negative = inhibition": "inactive: -12.8%"}, {"smiles": "Cc1cc(C(=O)COC(=O)c2ccc(O)cc2O)c(C)n1-c1ccc(OC(F)F)cc1", "activity change, negative = inhibition": "inconclusive: -52.6%"}, {"smiles": "N#Cc1ccccc1CSc1ccc(-c2nc3ccccc3[nH]2)cn1", "activity change, negative = inhibition": "inconclusive: -58%"}, {"smiles": "O=C(/C(=C/c1ccccc1)n1cncn1)c1ccc(Cl)cc1Cl", "activity change, negative = inhibition": "inconclusive: -43%"}, {"smiles": "Cc1cc2c(cc3c(SCc4ccc(Cl)cc4)nncn32)o1", "activity change, negative = inhibition": "inconclusive: -42%"}, {"smiles": "COc1ccc(C(CCNCc2ccc(OC(C)C)cc2)c2ccccc2OC)cc1", "note": "(stereo unspecified)", "activity change, negative = inhibition": "inconclusive: -41.3%"}, {"smiles": "CC(=O)NC(c1ccc2ccccc2c1)c1ccc2cccnc2c1O", "note": "(stereo unspecified)", "activity change, negative = inhibition": "active: -69.9%"}, {"smiles": "CCCC(C(=O)O)n1c(O)c(C=C2N=c3ccccc3=N2)sc1=S", "note": "(stereo unspecified)", "activity change, negative = inhibition": "active: -60.6%"}, {"smiles": "O=C(COC(=O)/C=C/C(=O)OCC(=O)NC12CC3CC(CC(C3)C1)C2)NC12CC3CC(CC(C3)C1)C2", "activity change, negative = inhibition": "inconclusive: -44.1%"}, {"smiles": "CCOc1ccccc1NS(=O)(=O)N(C)C", "activity change, negative = inhibition": "inactive: 11%"}, {"smiles": "CN(CC(=O)Nc1cccc(F)c1)C(=O)CSc1ccc(Br)cc1", "activity change, negative = inhibition": "active: -71.8%"}, {"smiles": "Cc1ccc2c(c1)c1c(n2CC(O)CNC2CCCC2)CCCC1", "note": "(stereo unspecified)", "activity change, negative = inhibition": "active: -81.5%"}, {"smiles": "Cc1c(O)nc(SCC(=O)Nc2ccc3c4c(cccc24)CC3)n(-c2ccccc2)c1=O", "activity change, negative = inhibition": "inactive: -14%"}, {"smiles": "Cn1c(=O)c2c(nc(N3CCNCC3)n2Cc2ccccc2Cl)n(C)c1=O", "activity change, negative = inhibition": "inconclusive: -57.7%"}, {"smiles": "CCOc1ccccc1Cn1c(=O)sc2ccccc21", "activity change, negative = inhibition": "active: -86.9%"}, {"smiles": "N#Cc1c(N2CCN(c3ccc(F)cc3)CC2)nc(N)c2c(N)nc3c(c12)CC(=O)N3C1CC1", "activity change, negative = inhibition": "inconclusive: -40.7%"}, {"smiles": "Cc1cc(C)n2nc(SCc3cc(=O)oc4ccc5ccccc5c34)nc2n1", "activity change, negative = inhibition": "inactive: -8.88%"}, {"smiles": "Cc1ccc(C)c2c1cc(C)c1nnc(SCC(=O)Nc3cccc(C(=O)O)c3)n12", "activity change, negative = inhibition": "inconclusive: -50.4%"}, {"smiles": "CCN(CC)CCN(C(=O)/C=C/c1cccs1)c1nc2ccc(C)cc2s1", "activity change, negative = inhibition": "inactive: -0.331%"}, {"smiles": "Cc1cccc(N2CCN(C(=O)CCCn3c(=O)c4cccn4c4cccnc43)CC2)c1C", "activity change, negative = inhibition": "inconclusive: -58.3%"}, {"smiles": "O=C(CN1C(=O)C(=O)N(CCC2=CCCCC2)C1=O)c1c[nH]c2ccccc12", "activity change, negative = inhibition": "active: -66.4%"}, {"smiles": "Cc1ccnc(N2CCCC(C(=O)Nc3ccc(C)c(C)c3)C2)n1", "note": "(stereo unspecified)", "activity change, negative = inhibition": "inconclusive: -48.5%"}, {"smiles": "O=C(CC1N=C2c3ccccc3N=C(SCc3ccc(F)cc3)N2C1=O)NCc1cccs1", "note": "(stereo unspecified)", "activity change, negative = inhibition": "inactive: -7.63%"}, {"smiles": "O=S(=O)(NC(=NC1CCCCC1)c1ccccc1F)c1ccccc1", "activity change, negative = inhibition": "inconclusive: -41.3%"}, {"smiles": "COc1cccc(CN(C)CC(O)COC(c2ccccc2)c2ccccc2C)c1", "note": "(stereo unspecified)", "activity change, negative = inhibition": "inconclusive: -43%"}, {"smiles": "Cn1c(SCc2ccccc2Cl)nc2c1c(=O)[nH]c(=O)n2C", "activity change, negative = inhibition": "inconclusive: -45.8%"}, {"smiles": "COc1ccc(C(O)(C2CCCCC2)C(CN2CCOCC2)c2ccccc2)cc1", "note": "(stereo unspecified)", "activity change, negative = inhibition": "active: -89.7%"}, {"smiles": "COc1cc(/C=N/NC(=O)c2ccc(COc3ccccc3Cl)o2)cc(Br)c1O", "activity change, negative = inhibition": "inconclusive: -46%"}, {"smiles": "COc1ccccc1Oc1c(C)oc2c(CN3CCN(CCO)CC3)c(O)ccc2c1=O", "activity change, negative = inhibition": "inactive: 17.4%"}, {"smiles": "O=C(NC(=S)Nc1cccc(CO)c1)c1ccc(-c2ccccc2)cc1", "activity change, negative = inhibition": "inconclusive: -44.6%"}, {"smiles": "O=C(COc1ccccc1F)Nc1ccc(S(=O)(=O)Nc2nccs2)cc1", "activity change, negative = inhibition": "inconclusive: -58.7%"}, {"smiles": "Brc1ccc(CSc2ccc(-c3ccco3)nn2)cc1", "activity change, negative = inhibition": "inconclusive: -43%"}, {"smiles": "O=C(CSc1ccccc1)N1CCN(c2ccc(F)cc2)CC1", "activity change, negative = inhibition": "inconclusive: -51%"}, {"smiles": "Cn1c(=O)c(C(=O)NNC(=O)c2ccccc2Br)c(O)c2ccccc21", "activity change, negative = inhibition": "inconclusive: -48.9%"}, {"smiles": "Cc1ccc(NC(=O)Cn2ncn3c(cc4ccccc43)c2=O)c(C)c1", "activity change, negative = inhibition": "inconclusive: -54.7%"}, {"smiles": "O=C(N/N=C/c1cccc(F)c1)c1ccc(Cl)cc1", "activity change, negative = inhibition": "inconclusive: -43.3%"}, {"smiles": "COC(=O)c1c(NC(=O)COC(=O)C2CCC2)sc(C)c1C", "activity change, negative = inhibition": "inconclusive: -49.4%"}, {"smiles": "COc1ccc(-c2nn(-c3ccccc3)cc2C(=O)N2c3ccc(C)cc3C3CN(C)CCC32)cc1", "note": "(stereo unspecified)", "activity change, negative = inhibition": "inconclusive: -44%"}, {"smiles": "Cn1c(CCN2CCN(c3ccccn3)CC2)nc2cc(NC(=O)COc3ccc(Cl)cc3)ccc21", "activity change, negative = inhibition": "inactive: -6.85%"}, {"smiles": "Cc1cccc(N2CCN(C(=O)c3c(C)oc4nc(C)nc(N5CCCC5)c34)CC2C)c1", "note": "(stereo unspecified)", "activity change, negative = inhibition": "inactive: 4.21%"}, {"smiles": "CN(C(=O)c1ccc2c(c1)N(Cc1ccccc1F)C(=O)c1ccccc1S2)C1CCCCC1", "activity change, negative = inhibition": "inconclusive: -51.5%"}, {"smiles": "COCC(C)N1C(=O)Cc2c1nc(N)c1c(N)nc(N3CCN(c4ccccc4F)CC3)c(C#N)c21", "note": "(stereo unspecified)", "activity change, negative = inhibition": "active: -60.1%"}, {"smiles": "O=C(C1CCN(c2nc3ccccc3[nH]2)CC1)N1CCN(c2ccccc2)CC1", "activity change, negative = inhibition": "inactive: -21.4%"}, {"smiles": "Cc1nc(C)c(C(=O)O)s1", "activity change, negative = inhibition": "inactive: 18.1%"}, {"smiles": "Cc1cccc(N2CCN(C(C)C(=O)N3CCc4ccccc43)CC2)c1C", "note": "(stereo unspecified)", "activity change, negative = inhibition": "inconclusive: -53.5%"}, {"smiles": "O=C(CSc1nc(-c2ccc(F)cc2)[nH]c1-c1ccccc1)Nc1ccccc1", "activity change, negative = inhibition": "inconclusive: -56.9%"}, {"smiles": "COc1ccc(CC(=O)NNC(=O)c2ccccn2)cc1", "activity change, negative = inhibition": "active: -61.5%"}, {"smiles": "CN(C)S(=O)(=O)c1ccc(N2CCCC2)c(C(=O)NNC(=O)c2ccc(F)cc2)c1", "activity change, negative = inhibition": "inactive: 7.72%"}, {"smiles": "CCc1ccc(CN(Cc2ccco2)C(=O)COc2ccc(Cl)c(C)c2)cc1", "activity change, negative = inhibition": "inconclusive: -48.8%"}, {"smiles": "CCc1ccc(-c2cc(C(=O)NCc3ccccn3)c3ccccc3n2)cc1", "activity change, negative = inhibition": "inactive: -13.4%"}, {"smiles": "Cc1cccc(OCC(O)Cn2c(=N)n(CCN3CCCCC3)c3ccccc32)c1", "note": "(stereo unspecified)", "activity change, negative = inhibition": "active: -62.7%"}, {"smiles": "CCN1/C(=C/c2ccc3ccccc3[n+]2CC)C=Cc2ccccc21", "activity change, negative = inhibition": "inconclusive: -54.8%"}, {"smiles": "Cc1cc(SCC(=O)NC2CC2)nc2ccccc12", "activity change, negative = inhibition": "inactive: 12.6%"}, {"smiles": "Cc1cccc(N2CCN(C(=O)c3ccc4[nH]c(C)c(C)c4c3)CC2)c1C", "activity change, negative = inhibition": "inconclusive: -51.2%"}, {"smiles": "COc1ccc(-n2c(-c3ccc(C)cc3)cc3c2CC(C)(C)CC3=O)c(OC)c1", "activity change, negative = inhibition": "active: -62.1%"}, {"smiles": "CN1C(=O)c2ccccc2Sc2ccc(NC(=O)NCc3cccc(Cl)c3)cc21", "activity change, negative = inhibition": "inconclusive: -55.4%"}, {"smiles": "CC(/C=N/N1C(=O)CSC1=S)=C\\c1ccccc1", "activity change, negative = inhibition": "inconclusive: -44.1%"}, {"smiles": "CC1CC(C)CN(C(=O)c2ccc3c(c2)N(Cc2ccccc2)CCS3)C1", "note": "(stereo unspecified)", "activity change, negative = inhibition": "inconclusive: -43.6%"}, {"smiles": "CS(=O)(=O)c1ccc(C(=O)OCC(=O)NCc2cccs2)cc1[N+](=O)[O-]", "activity change, negative = inhibition": "active: -101%"}, {"smiles": "COc1ccc(NC(=O)CN(C)S(=O)(=O)c2cnc[nH]2)cc1Cl", "activity change, negative = inhibition": "inconclusive: -42.4%"}, {"smiles": "Cc1cccc(Nc2nc(-c3ccc(F)cc3)cs2)n1", "activity change, negative = inhibition": "active: -77.8%"}, {"smiles": "O=C(c1ccco1)N1c2ccccc2Sc2ccccc21", "activity change, negative = inhibition": "inconclusive: -52.1%"}, {"smiles": "Cc1ccc(N2CCN(S(=O)(=O)c3ccc(F)cc3)CC2)c(C)c1", "activity change, negative = inhibition": "inconclusive: -40.8%"}, {"smiles": "COC(=O)c1ccc(C#Cc2ccccc2)o1", "activity change, negative = inhibition": "inactive: -20%"}, {"smiles": "Cn1c(-c2sc3cc(C(F)(F)F)cnc3c2-c2cccs2)n[nH]c1=S", "activity change, negative = inhibition": "inconclusive: -56.4%"}, {"smiles": "O=C(/C=C/c1ccccc1[N+](=O)[O-])N1CCc2ccccc2C1", "activity change, negative = inhibition": "inactive: -4.06%"}]}]}
